Assay results from patent US5616684A, “Cyclic peptides and use thereof” (priority 1991, dated 1997).
Not every detail of the peptide structures is certain; ends, links or a residue may be inferred. Non-standard residues stand in square brackets, D forms with d. Residues, ends and D or L forms follow the SMILES beside them. *: point of attachment. dGly(2-thienyl) = N[C@@H](C(=O)O)c1cccs1; NH(Tetralin-1-yl) = c1ccc2c(c1)CCCC2N*; Mtr = COc1cc(C)c(S(=O)(=O)*)c(C)c1C; N(Me)CH2CH2Ph = CN(CCc1ccccc1)*; NHPhenethyl = c1ccc(CCN*)cc1; Tos = Cc1ccc(S(=O)(=O)*)cc1; Ac6c = NC1(C(=O)O)CCCCC1; Ac4c = NC1(C(=O)O)CCC1; X4 = c1ccc2c(c1)CCC2N*; X6 = CC(=O)N1CCN(*)CC1; X2 = c1ccc2c(c1)CCN2*; NHBn = c1ccc(CN*)cc1; X5 = CC(CN*)c1ccccc1

Experiments:
[1] = molecular target: T1, endothelin receptor A (ETA) (Sus scrofa, UniProt Q29010); assay: Assay of Affinity for Receptor (1): Binding Activity on ETA Receptor; set-up: key: relative binding activity; reference cyclic pentapeptide = 1.0; details: specific activity, binding activity of cyclo[-D-Glu-Ala-D-aIle-Leu-D-Trp-] taken as 1.0; porcine heart membrane fraction, 125I-labeled endothelin-1, 25° C., 1 hour
T1 construct: A membrane fraction prepared from the porcine heart; from tissue; host or cells: porcine heart membrane fraction
T1 sequence (Q29010 21-427): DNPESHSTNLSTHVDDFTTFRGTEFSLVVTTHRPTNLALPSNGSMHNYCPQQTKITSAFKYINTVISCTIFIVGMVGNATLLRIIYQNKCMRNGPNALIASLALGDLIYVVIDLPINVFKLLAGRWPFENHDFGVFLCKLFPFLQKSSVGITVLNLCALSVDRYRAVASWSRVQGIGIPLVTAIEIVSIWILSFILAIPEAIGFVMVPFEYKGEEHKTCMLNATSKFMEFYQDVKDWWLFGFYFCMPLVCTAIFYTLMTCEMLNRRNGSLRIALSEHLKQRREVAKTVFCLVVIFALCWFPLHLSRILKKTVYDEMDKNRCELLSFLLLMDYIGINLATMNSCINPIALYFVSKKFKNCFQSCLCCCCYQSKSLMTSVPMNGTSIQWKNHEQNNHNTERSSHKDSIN
Description: Assay of Affinity for Receptor (1) . . . Binding Activity on ETA Receptor
A membrane fraction prepared from the porcine heart was diluted to 0.15 mg/ml by using a buffer solution for assay, and 100 μl of the resulting suspension of the membrane fraction was poured into each assay tube to use for assay. To this suspension of the membrane fraction was added 2 μl of 5 nM ^125 I-labeled endothelin-1 solution. Further, 3 μl of a test peptide solution was added thereto, followed by incubation at a temperature of 25° C. for 1 hour. Then, the resulting suspension was diluted with 900 μl of the buffer solution for assay cooled with ice, and thereafter separated into a supernatant and a precipitate by centrifugation at 12,000×g for 10 minutes. Cell membranes and an endothelin receptor A (ETA) embedded therein were contained in the precipitate, and radioactive iodine-labeled endothelin combined with the receptor was also recovered in the precipitate. Accordingly, the amount of radioactive iodine-labeled endothelin combined with the endothelin receptor A (ETA) was determined by measuring the amount of radioactive iodine contained in the precipitate with a gamma-ray counter. The cyclic pentapeptide described in Japanese Patent Application No. 2-413828/1990, cyclo[-D-Glu-Ala-D-aIle-Leu-D-Trp-], was used as a control compound. The numerical value of ETA shown in Table 1 is the value of specific activity, taking the binding activity of this cyclic pentapeptide on the receptor A as 1.0. The binding activity (IC50) of this cyclic pentapeptide on the ETA receptor is 2×10^-6 M.

[2] = tested on: ETB receptor (guinea pig kidney crude receptor membrane fraction); assay: ETB Radio Receptor Assay *2; format: binding; details: relative activity (Example 8 given as 100), 125I-endothelin-1, 37° C., 90 minutes
Description: ETB Radio Receptor Assay *2
In the endothelin radio receptor assay, guinea pigs' kidneys were used. Guinea pigs (Std Hartrey, male 250 g, Japan SLC Ltd.) were made to have a cerebral concussion and sacrificed by bleeding from carotid arteries to pick up the kidneys and removed fat therefrom to prepare the kidneys. The obtained kidneys were sliced and homogenized by politron homogenizer in 20 ml of 50 mM Tris-HCl buffer [pH 7.4; 20 mM NaHCO3, 0.1 mM PMSF (Phenylmethylsulfonyl Fluoride), 1 mM EDTA (Ethylenediaminetetraacetic acid)] per one kidney. The homogenized kidney was applied to a centrifugation at 1,000×g for 15 minutes and the supernatant was further applied to a centrifugation for 20 minutes at 30,000×g. The resulting precipitate was twice washed with 50 mM Tris-HCl buffer (pH 7.4) containing 0.1 mM PMSF, 1 mM EDTA. The resultant was stored at -80 ° C. as a crude receptor membrane fraction and was used as the suspension in the following buffer when necessary.
740 Bq of ^125 I-endothelin-1 (81.4 TBq/mmol, Du Pont, USA) as a radio ligand, the crude membrane fraction (2.1 μg protein) and samples were added to the following buffer. The reaction was performed at 37° C., for 90 minutes in 0.2 ml of the buffer [50 mM Tris-HCl buffer (pH 7.4) containing 0.1 mM PMSF, 1 mM EDTA, 0.2% bovine serum albumin].
The reaction was stopped by fast filtration on a glass filter (GF/B, Wattman, USA) by Cell Harvestor (290 PHD, Cambridge-Technology, Great Britain), and the filter was three times washed with 50 mM Tris-HCl buffer (pH 7.4). Radio activity remained on the filter was assayed by a gamma counter.

| Structure (SMILES) | Binding Activity on ET Receptor (R. act.) ETA [1] | Binding Activity on ET Receptor (R. act.) ET8 *2 [2] |
| --- | --- | --- |
| CC(C)C[C@@H]1NC(=O)[C@@H](c2cccs2)NC(=O)[C@H](CC(=O)O)NC(=O)[C@H](Cc2c[nH]c3ccccc23)NC(=O)[C@@H](CC(=O)O)NC(=O)[C@@H](Cc2c[nH]c3ccccc23)NC1=O [Example 55, cyclo[-D-Asp-Trp-Asp-D-Thg(2)-Leu-D-Trp-]] (cyclo(D[dGly(2-thienyl)]L[dW][dD]W)) | 340 | 120 |
| CC(C)C[C@@H]1NC(=O)C2(CCC2)NC(=O)[C@H](CC(=O)O)NC(=O)[C@H](Cc2c[nH]c3ccccc23)NC(=O)[C@@H](CC(=O)O)NC(=O)[C@@H](Cc2c[nH]c3ccccc23)NC1=O [Example 56, cyclo[-D-Asp-Trp-Asp-Acbu-Leu-D-Trp-]] (cyclo([Ac4c]L[dW][dD]WD)) | 51 | 4.3 |
| CC(C)C[C@@H]1NC(=O)C2(CCCCC2)NC(=O)[C@H](CC(=O)O)NC(=O)[C@H](Cc2c[nH]c3ccccc23)NC(=O)[C@@H](CC(=O)O)NC(=O)[C@@H](Cc2c[nH]c3ccccc23)NC1=O [Example 61, Cyclo[--D--Asp--Trp--Asp--Achx--Leu--D--Trp--]] (cyclo([Ac6c]L[dW][dD]WD)) | 39 | 52 |
| CC(C)C[C@@H]1NC(=O)[C@@H](CC(C)C)NC(=O)[C@H](CC(=O)O)NC(=O)[C@H](CCC(=O)NCc2ccccc2)NC(=O)[C@@H](CC(=O)O)NC(=O)[C@@H](Cc2c[nH]c3ccccc23)NC1=O [Example 62, Cyclo[--D--Asp--Gln(CH2 Ph)--Asp--D--Leu--Leu--D--Trp--]] (cyclo(D[dL]L[dW][dD]E(NHBn))) | 170 | 120 |
| CC(C)C[C@@H]1NC(=O)[C@@H](CC(C)C)NC(=O)[C@H](CC(=O)O)NC(=O)[C@H](CCC(=O)NCCc2ccccc2)NC(=O)[C@@H](CC(=O)O)NC(=O)[C@@H](Cc2c[nH]c3ccccc23)NC1=O [Example 63, Cyclo[--D--Asp--Gln(CH2 CH2 Ph)--Asp--D--Leu--Leu--D--Trp--]] (cyclo(D[dL]L[dW][dD]E(NHPhenethyl))) | 130 | 340 |
| Cc1ccc(S(=O)(=O)NC(=N)NCCC[C@@H]2NC(=O)[C@@H](CC(=O)O)NC(=O)[C@@H](Cc3c[nH]c4ccccc34)NC(=O)[C@H](CC(C)C)NC(=O)[C@@H](CC(C)C)NC(=O)[C@H](CC(=O)O)NC2=O)cc1 [Example 65, Cyclo[--D--Asp--Arg(Tos)--Asp--D--Leu--Leu--D--Trp--]] (cyclo(D[dL]L[dW][dD]R(Tos))) | 20 | 63 |
| COc1cc(C)c(S(=O)(=O)NCCCC[C@@H]2NC(=O)[C@@H](CC(=O)O)NC(=O)[C@@H](Cc3c[nH]c4ccccc34)NC(=O)[C@H](CC(C)C)NC(=O)[C@@H](CC(C)C)NC(=O)[C@H](CC(=O)O)NC2=O)c(C)c1C [Example 66, Cyclo[--D--Asp--Lys(Mtr)--Asp--D--Leu--Leu--D--Trp--]] (cyclo(D[dL]L[dW][dD]K(Mtr))) | 51 | 120 |
| CC(C)C[C@@H]1NC(=O)[C@@H](CC(C)C)NC(=O)[C@H](CC(=O)O)NC(=O)[C@H](CC(=O)N(C)CCc2ccccc2)NC(=O)[C@@H](CC(=O)O)NC(=O)[C@@H](Cc2c[nH]c3ccccc23)NC1=O [Example 68, Cyclo[--D--Asp--Asn(Me.CH2 CH2 Ph)--Asp--D--Leu--Leu--D--Trp--]] (cyclo(D(N(Me)CH2CH2Ph)D[dL]L[dW][dD])) | 24 | 52 |
| CC(C)C[C@@H]1NC(=O)[C@@H](CC(C)C)NC(=O)[C@H](CC(=O)O)NC(=O)[C@H](CC(=O)NCC(C)c2ccccc2)NC(=O)[C@@H](CC(=O)O)NC(=O)[C@@H](Cc2c[nH]c3ccccc23)NC1=O (stereo partly drawn) [Example 69, Cyclo[--D--Asp--Asn(CH2 CHMePh)--Asp--D--Leu--Leu--D--Trp--]] (cyclo(D(X5)D[dL]L[dW][dD])) | 140 | 60 |
| CC(C)C[C@@H]1NC(=O)[C@@H](CC(C)C)NC(=O)[C@H](CC(=O)O)NC(=O)[C@H](CC(=O)N2CCc3ccccc32)NC(=O)[C@@H](CC(=O)O)NC(=O)[C@@H](Cc2c[nH]c3ccccc23)NC1=O [Example 72, Cyclo[--D--Asp--Asp(R3)--Asp--D--Leu--Leu--D--Trp--]] (cyclo(D(X2)D[dL]L[dW][dD])) | 45 | 100 |
| CC(C)C[C@@H]1NC(=O)[C@@H](CC(C)C)NC(=O)[C@H](CC(=O)O)NC(=O)[C@H](CC(=O)NC2CCc3ccccc32)NC(=O)[C@@H](CC(=O)O)NC(=O)[C@@H](Cc2c[nH]c3ccccc23)NC1=O (stereo partly drawn) [Example 73, Cyclo[--D--Asp--Asp(R4)--Asp--D--Leu--Leu--D--Trp--]] (cyclo(D(X4)D[dL]L[dW][dD])) | 80 | 40 |
| CC(C)C[C@@H]1NC(=O)[C@@H](CC(C)C)NC(=O)[C@H](CC(=O)O)NC(=O)[C@H](CC(=O)NC2CCCc3ccccc32)NC(=O)[C@@H](CC(=O)O)NC(=O)[C@@H](Cc2c[nH]c3ccccc23)NC1=O (stereo partly drawn) [Example 74, Cyclo[--D--Asp--Asp(R5)--Asp--D--Leu--Leu--D--Trp--]] (cyclo(D(NH(Tetralin-1-yl))D[dL]L[dW][dD])) | 37 | 31 |
| CC(=O)N1CCN(C(=O)C[C@@H]2NC(=O)[C@@H](CC(=O)O)NC(=O)[C@@H](Cc3c[nH]c4ccccc34)NC(=O)[C@H](CC(C)C)NC(=O)[C@@H](CC(C)C)NC(=O)[C@H](CC(=O)O)NC2=O)CC1 [Example 75, Cyclo[--D--Asp--Asp(R6)--Asp--D--Leu--Leu--D--Trp--]] (cyclo(D(X6)D[dL]L[dW][dD])) | 9 | 33 |
| CC(C)C[C@@H]1NC(=O)[C@@H](CC(C)C)NC(=O)[C@H](CC(=O)O)NC(=O)[C@H](CCC(=O)N2CCc3ccccc32)NC(=O)[C@@H](CC(=O)O)NC(=O)[C@@H](Cc2c[nH]c3ccccc23)NC1=O [Example 76, Cyclo[--D--Asp--Glu(R3)--Asp--D--Leu--Leu--D--Trp--]] (cyclo(D[dL]L[dW][dD]E(X2))) | 17 | 57 |
| CC(C)C[C@@H]1NC(=O)[C@@H](CC(C)C)NC(=O)[C@H](CC(=O)O)NC(=O)[C@H](CCC(=O)NC2CCc3ccccc32)NC(=O)[C@@H](CC(=O)O)NC(=O)[C@@H](Cc2c[nH]c3ccccc23)NC1=O (stereo partly drawn) [Example 77, Cyclo[--D--Asp--Glu(R4)--Asp--D--Leu--Leu--D--Trp--]] (cyclo(D[dL]L[dW][dD]E(X4))) | 66 | 100 |
